Measurements as given in PMC12457691.
Results are given in words; binding and its absence hold for the method and conditions named. For some assays here: In cells and extracts the contact can be indirect. Some results given as binding are weak or reduced against the parent protein; the word gives no strength. Where a sequence is shown, tags or fusion partners need not be part of it.

Columns and labels:
[1] = molecular target: T1, RodA, fused to the T18 or T25 fragment of adenylate cyclase (pT18-rodA, pT25-rodA) (B. subtilis 168) (UniProt P39604); assay: two-hybrid; bacterial adenylate cyclase two-hybrid (T18 and T25 fusions) in E. coli BTH101; cultures spotted on LB-Agar with 0.5 mM IPTG and 40 ug/ml X-Gal, 30 °C overnight; blue colonies indicate a positive interaction
T1 sequence: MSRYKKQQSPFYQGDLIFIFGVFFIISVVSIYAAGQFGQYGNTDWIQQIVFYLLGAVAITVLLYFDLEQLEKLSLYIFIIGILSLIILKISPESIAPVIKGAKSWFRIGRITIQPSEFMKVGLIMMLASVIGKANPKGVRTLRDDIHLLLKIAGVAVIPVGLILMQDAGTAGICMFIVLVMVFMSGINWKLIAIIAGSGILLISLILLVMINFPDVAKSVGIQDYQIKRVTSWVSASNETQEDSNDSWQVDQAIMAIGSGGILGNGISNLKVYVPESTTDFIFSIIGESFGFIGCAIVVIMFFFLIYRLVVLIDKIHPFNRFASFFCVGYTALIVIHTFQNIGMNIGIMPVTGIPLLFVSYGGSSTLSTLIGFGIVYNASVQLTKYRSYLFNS

[2] = molecular target: T2, GpsB, fused to the T18 or T25 fragment of adenylate cyclase (pT18-gpsB, pT25-gpsB) (B. subtilis 168) (UniProt P0CI74); assay: as above
T2 sequence: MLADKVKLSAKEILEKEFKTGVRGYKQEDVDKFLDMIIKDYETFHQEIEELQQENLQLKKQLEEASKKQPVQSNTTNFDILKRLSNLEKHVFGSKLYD

[3] = molecular target: T3, purified recombinant full-length 6His-RagB (B. subtilis 168) (UniProt O32031); assay: pull-down; membrane protein extract of B. subtilis SG825 with RodA-GFP (50 mM HEPES pH 8, 200 mM NaCl, 1 mM MgCl2, 1 mM CaCl2, 0.5% DDM) incubated with 100 ug purified 6His-RagB for 1 h at 4 °C, then purified on Ni-NTA resin (buffers with 0.1% DDM); western blot; only the target purified
T3 sequence: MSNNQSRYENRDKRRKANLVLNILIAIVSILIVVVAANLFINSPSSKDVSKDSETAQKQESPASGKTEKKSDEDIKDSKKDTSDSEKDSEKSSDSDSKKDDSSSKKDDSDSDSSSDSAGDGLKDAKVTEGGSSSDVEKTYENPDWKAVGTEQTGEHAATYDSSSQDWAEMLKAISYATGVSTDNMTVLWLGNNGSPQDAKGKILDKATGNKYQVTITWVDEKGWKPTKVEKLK

[4] = molecular target: T4, RodA-GFP (B. subtilis 168) (UniProt P39604); assay: co-IP; cells treated with 0.5% formaldehyde for 15 min; membrane proteins solubilised with 0.5% DDM; anti-GFP antibody resin (Chromotek), 2 h at room temperature; elution with SDS sample buffer; western blot with anti-RagB and anti-GFP
T4 sequence: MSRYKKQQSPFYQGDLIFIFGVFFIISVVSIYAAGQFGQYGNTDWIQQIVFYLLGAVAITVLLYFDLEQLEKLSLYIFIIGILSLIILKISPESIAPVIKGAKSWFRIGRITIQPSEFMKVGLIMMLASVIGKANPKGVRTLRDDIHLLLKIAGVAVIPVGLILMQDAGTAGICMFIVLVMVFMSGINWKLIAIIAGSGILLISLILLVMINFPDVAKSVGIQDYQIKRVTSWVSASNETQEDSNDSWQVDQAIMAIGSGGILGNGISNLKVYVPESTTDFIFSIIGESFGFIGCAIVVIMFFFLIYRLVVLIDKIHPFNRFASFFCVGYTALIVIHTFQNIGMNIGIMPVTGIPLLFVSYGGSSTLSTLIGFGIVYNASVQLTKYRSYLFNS

B1: RagB (YrrS), fused to the T25 fragment of adenylate cyclase (pT25-ragB) (protein, UniProt O32031 1-233)
chain: MSNNQSRYENRDKRRKANLVLNILIAIVSILIVVVAANLFINSPSSKDVSKDSETAQKQESPASGKTEKKSDEDIKDSKKDTSDSEKDSEKSSDSDSKKDDSSSKKDDSDSDSSSDSAGDGLKDAKVTEGGSSSDVEKTYENPDWKAVGTEQTGEHAATYDSSSQDWAEMLKAISYATGVSTDNMTVLWLGNNGSPQDAKGKILDKATGNKYQVTITWVDEKGWKPTKVEKLK
With B1 the binding [1] was “binds” and the binding [2] was “binds”.

B2: RodA-GFP (protein, UniProt P39604 1-393)
chain: MSRYKKQQSPFYQGDLIFIFGVFFIISVVSIYAAGQFGQYGNTDWIQQIVFYLLGAVAITVLLYFDLEQLEKLSLYIFIIGILSLIILKISPESIAPVIKGAKSWFRIGRITIQPSEFMKVGLIMMLASVIGKANPKGVRTLRDDIHLLLKIAGVAVIPVGLILMQDAGTAGICMFIVLVMVFMSGINWKLIAIIAGSGILLISLILLVMINFPDVAKSVGIQDYQIKRVTSWVSASNETQEDSNDSWQVDQAIMAIGSGGILGNGISNLKVYVPESTTDFIFSIIGESFGFIGCAIVVIMFFFLIYRLVVLIDKIHPFNRFASFFCVGYTALIVIHTFQNIGMNIGIMPVTGIPLLFVSYGGSSTLSTLIGFGIVYNASVQLTKYRSYLFNS
In the case of B2, the binding [3] is reported as “binds”.

B3: RagB, endogenous in B. subtilis SG818 (protein, UniProt O32031 1-233)
chain: MSNNQSRYENRDKRRKANLVLNILIAIVSILIVVVAANLFINSPSSKDVSKDSETAQKQESPASGKTEKKSDEDIKDSKKDTSDSEKDSEKSSDSDSKKDDSSSKKDDSDSDSSSDSAGDGLKDAKVTEGGSSSDVEKTYENPDWKAVGTEQTGEHAATYDSSSQDWAEMLKAISYATGVSTDNMTVLWLGNNGSPQDAKGKILDKATGNKYQVTITWVDEKGWKPTKVEKLK
B3 was tested, and the binding [4] was “binds”.

B4: GpsB, fused to the T18 or T25 fragment of adenylate cyclase (pT18-gpsB, pT25-gpsB) (protein, UniProt P0CI74 1-98)
chain: MLADKVKLSAKEILEKEFKTGVRGYKQEDVDKFLDMIIKDYETFHQEIEELQQENLQLKKQLEEASKKQPVQSNTTNFDILKRLSNLEKHVFGSKLYD
With B4 the binding [1] was “no binding”.
